# Test results taken from PubChem BioAssay AID624296 (National Center for Advancing Translational Sciences (NCATS), 2012).
# In all, about 350,000 compounds went through this assay and about 9,900 (2.8%) were called active. The shares of active, inactive and inconclusive entries below differ from those in the screen. The call rests on the fitted dose curve; in most records, active means well fitted activation curve with a large enough effect; inconclusive means small, poorly fitted or top-dose-only effect; inactive means no such curve, though single readings can be large or run the other way. No potency is given beside an inconclusive call; the fits are too rough.
# Assay: A quantitative high throughput screen for small molecules that induce DNA re-replication in MCF 10a normal breast cells. Further: nearly all actives have a fitted effect of over 50% in size.
# Details: MCF 10A DNA re-replication, Hoechst nuclear intensity, 48 h; series mostly up to 46.1 µM
# Potency means the concentration at half of the fitted maximal effect; tags describe the fitted curve by direction and shape.
row,SMILES,Potency
1,CCOC(=O)c1c(C)sc2c1N(C(=O)CCl)c1cc(Cl)ccc1S2,"inconclusive [activator, single point]"
2,Cc1ccc(SCCN2CCC(NC(=O)OCc3ccccc3)CCC2=O)cc1 (centres undefined),"inconclusive [activator, full curve, poor fit]"
3,COc1ccc2c(c1)OC[C@H]1[C@H]2N2C(=O)c3cc(OC)c(OC)cc3NC(=O)[C@@]2(C)[C@H]1c1ccccc1,active: 18.4 µM
4,CCCCNC(=O)c1onc(CSc2ccccc2)c1C(=O)NCCCC,inactive
5,Cn1c(CC(=O)Nc2ccccc2)cc2ccccc21,inactive
6,COc1ccc(CNC(=O)COC(=O)c2sccc2C)cc1OC,inactive
7,Cc1nn(C(C)C)c(C)c1CN1CCC(C(=O)Nc2cccc(-c3cccc(F)c3)c2)CC1,"inconclusive [activator, partial curve, poor fit]"
8,O=C(NCCC(=O)N1CCN(C(=O)c2ccco2)CC1)c1ccc(Br)cc1,inactive
9,COCc1nnc(NC(=O)c2ccc(S(=O)(=O)N3CCCCCC3)cc2)o1,"inconclusive [activator, single point]"
10,Cc1ncoc1C(=O)N1CCCC(CCC(=O)NCc2ccc(F)c(F)c2)C1 (centres undefined),"inconclusive [activator, single point]"
11,COc1ccccc1-c1nc(C#N)c(N2CCN(C(c3ccccc3)c3ccccc3)CC2)o1,inactive
12,O=C(N/N=C/c1ccc(Cl)cc1)c1cc(-c2cccnc2)nc2ccccc12,"inconclusive [activator, full curve, poor fit]"
13,COc1ccc(CCNC(=O)c2c[nH]c3ccc(F)cc3c2=O)cc1OC,"inconclusive [activator, single point]"
14,COc1ccc(-n2nnnc2SCC(=O)N2C(C)CCCC2C)c(OC)c1 (centres undefined),"inconclusive [activator, single point]"
15,O=C(O)CSc1nnc(Cc2ccccc2)n1-c1ccccc1,inactive
16,Cc1ccc(C)c(NC(=O)c2ccccc2O)c1,"inconclusive [activator, single point]"
17,O=C(NCc1ccco1)c1nn2c(C(F)(F)F)cc(-c3cccs3)nc2c1Cl,"inconclusive [activator, full curve, poor fit]"
18,Cc1c(CN2CCC(n3nccc3NC(=O)c3cccc(F)c3)CC2)cnn1C,"inconclusive [activator, partial curve, poor fit]"
19,Cc1ccc(OC(=O)c2cccc([N+](=O)[O-])c2)c(-n2nc3ccccc3n2)c1,inactive
20,CC(=O)Nc1cccc(NC(=O)C2CCCN2C(=O)Nc2cccc(C)c2)c1 (centres undefined),active: 9.2 µM
21,Cc1ccc(NC(=O)c2ccc(OCC3CCCO3)cc2)cc1 (centres undefined),"inconclusive [activator, full curve, poor fit]"
22,Cc1cc(S(=O)(=O)N(Cc2ccccc2)Cc2ccc(N(C)C)cc2)ccc1-n1cnnn1,"inconclusive [activator, partial curve, poor fit]"

row,SMILES,Potency
1,CC(C)c1nc2sc3c(NCc4ccco4)ncnc3c2c2c1COC(C)(C)C2,"inconclusive [activator, full curve, poor fit]"
2,CC(=O)Nc1ccc(NC(=O)c2ccccc2N(C)S(=O)(=O)c2ccc(C)cc2)cc1,"inconclusive [activator, full curve, poor fit]"
3,FC(F)(F)C1CCCN(c2nsc3ccccc23)C1 (centres undefined),"inconclusive [activator, single point]"
4,COc1ccc(-c2oc(=O)c3cc(OC)c(OC)cc3c2/C=C/c2ccc(F)cc2)cc1,"inconclusive [activator, full curve, poor fit]"
5,CC(C)(C)c1ccc(O)c(O)c1,"inconclusive [activator, single point]"
6,CCC(OC(=O)c1cc2sccc2n1C)C(=O)NCc1ccco1 (centres undefined),"inconclusive [activator, partial curve, poor fit]"
7,COc1ccc(C)cc1C1=CC(=O)C[C@H](c2ccc(F)cc2)C1,"inconclusive [activator, single point]"
8,COc1ccc(N2CCN(C(=O)Cn3nnc(-c4ccccc4N)n3)CC2)cc1,inactive
9,O=C(O)c1cccc(-c2ccc(/C=c3/sc4nc5ccccc5n4c3=O)o2)c1,inactive
10,COc1ccc(-c2nn(-c3ccccc3)cc2C(=O)NCC(c2cccs2)N2CCOCC2)cc1 (centres undefined),inactive
11,O=C(CC1CCCC1)Nc1ccc(Cl)c(S(=O)(=O)N2CCOCC2)c1,"inconclusive [activator, single point]"
12,CC(C)(C)/C(O)=C/c1nc2cc(Cl)ccc2oc1=O,"inconclusive [activator, single point]"
13,C/C(=N\NC(=O)c1ccc(F)cc1)c1ccccn1,"inconclusive [activator, partial curve]"
14,O=C1SC(SCc2ccccc2)=N/C1=C\c1ccco1,"inconclusive [activator, single point]"
15,COc1ccccc1OC(C)C(=O)NNC(=S)NC1CCCC1 (centres undefined),"inconclusive [activator, single point]"
16,C[C@@H]1CN([C@@H](C)CO)C(=O)c2cc(NC(=O)C3CC3)ccc2O[C@@H]1CN(C)Cc1ccc(Cl)c(Cl)c1,"inconclusive [activator, single point]"
17,COCCN(C(C)=O)c1nnc(-c2cnccn2)s1,"inconclusive [activator, single point]"
18,O=C(NNC(=O)c1ccccc1OCc1ccccc1)c1ccccc1O,inactive
19,Cc1ccc([N+](=O)[O-])cc1NC(=S)NC(=O)C(C)(C)C,inactive
20,COc1ccc(/C=N/NC(=S)N[C@H]2CC3CCC2C3)cc1 (some centres undefined),inactive
21,O=C(Nc1ccc(S(=O)(=O)N2CCCCC2)cc1)C1CCN(C(=O)c2ccco2)CC1,"inconclusive [activator, single point]"
22,NS(=O)(=O)c1ccc(N=Cc2c(O)c3ccccc3oc2=O)cc1,inactive
